# Positions count from the first letter of the chain named. The list shows a part of the results.
# T1: RBFOX1 RRM (Homo sapiens, UniProt Q9NWB1 109-208)
# T1 sequence: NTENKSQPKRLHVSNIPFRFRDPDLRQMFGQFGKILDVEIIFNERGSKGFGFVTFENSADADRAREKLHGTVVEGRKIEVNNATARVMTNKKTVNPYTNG
# B1: CGAGCGG (DNA:RNA)
# RNA: GGGAGACCGGAAUUCAGAUUGUCCCGAGCGGUUAAAUCCCGUCGUAGCCACCA
# DNA 1: CAATCTGAATTCCGGTCTCCC
# DNA 2: TGGTGGCTACGACGGGATT
# B2: CACCGGA (DNA:RNA)
# RNA: B1 RNA with G26A, A27C, G28C, C29G, G31A
# DNA 1: CAATCTGAATTCCGGTCTCCC
# DNA 2: TGGTGGCTACGACGGGATT
# B3: UUACGUU (DNA:RNA)
# RNA: B1 RNA with C25U, G26U, G28C, C29G, G30U, G31U
# DNA 1: CAATCTGAATTCCGGTCTCCC
# DNA 2: TGGTGGCTACGACGGGATT
# B4: UGACGCU (DNA:RNA)
# RNA: B1 RNA with C25U, G28C, C29G, G30C, G31U
# DNA 1: CAATCTGAATTCCGGTCTCCC
# DNA 2: TGGTGGCTACGACGGGATT
# B5: CGUCGAU (DNA:RNA)
# RNA: B1 RNA with A27U, G28C, C29G, G30A, G31U
# DNA 1: CAATCTGAATTCCGGTCTCCC
# DNA 2: TGGTGGCTACGACGGGATT
# B6: AUCAACC (DNA:RNA)
# RNA: GGGAGACCGGAAUUCAGAUUGUCCAUCAACCUUAAAUCCCGUCGUAGCCACCA
# DNA 1: CAATCTGAATTCCGGTCTCCC
# DNA 2: TGGTGGCTACGACGGGATT
# B7: GGGCCAU (DNA:RNA)
# RNA: B1 RNA with C25G, A27G, G28C, G30A, G31U
# DNA 1: CAATCTGAATTCCGGTCTCCC
# DNA 2: TGGTGGCTACGACGGGATT
# B8: UCGCGCG (DNA:RNA)
# RNA: B6 RNA with A25U, U26C, C27G, A28C, A29G, C31G
# DNA 1: CAATCTGAATTCCGGTCTCCC
# DNA 2: TGGTGGCTACGACGGGATT
# B9: CAGCUCG (DNA:RNA)
# RNA: B1 RNA with G26A, A27G, G28C, C29U, G30C
# DNA 1: CAATCTGAATTCCGGTCTCCC
# DNA 2: TGGTGGCTACGACGGGATT
# Target: T1, RBFOX1 RRM
# Assay: EMSA; HiTS-Eq, 1 nM pool, 10 min; buffer printed only for the single-RNA assays: 10 mM Tris pH 7.5, 150 mM NaCl, 3.4 mM EDTA, 0.001% NP-40, 30 C
# Settings: tags: His6 N-terminal (pET28a); label: 5' 32P
# In short: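 A pool of RNA with 7 randomized nucleotides, 5′-radiolabelled and with DNA-annealed flanks, was equilibrated at 1 nM for 10 min in 50 µL with purified RbFox RRM, wild type or mutant, across increasing protein concentrations. Free RNA was separated by 8% native PAGE, excised, reverse-transcribed, barcoded by PCR and sequenced. Relative association constants were obtained from read-count changes of each RNA species versus the control reaction and normalised to the cognate motif.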
row,Binder,binding signal
1,B1,0.00885 KA relative to UGCAUGU
2,B2,0.00389 KA relative to UGCAUGU
3,B3,0.0124 KA relative to UGCAUGU
4,B4,0.018 KA relative to UGCAUGU
5,B5,0.00831 KA relative to UGCAUGU
6,B6,0.000243 KA relative to UGCAUGU
7,B7,0.0103 KA relative to UGCAUGU
8,B8,0.0239 KA relative to UGCAUGU
9,B9,0.0193 KA relative to UGCAUGU

# Reference: article PMC9911399, “Two distinct binding modes provide the RNA-binding protein RbFox with extraordinary sequence specificity”
